# Test results from the supplement of paper PMC11417369.
# ± gives the standard deviation of the averaged measurements. The list shows a part of the results.
# Test system: PfAP2-G AP2 domain (GST-tagged)
# Assay: gcPBM binding intensity (ln(normalized median fluorescence intensity)); higher = stronger DNA binding
# Method in brief: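 Each value is the highest Masliner-normalised natural-log median intensity across replicate spots of either orientation of a probe. The probes were primer-extended double-stranded 36-bp intergenic genomic sequences on an Agilent 4 × 180k array, alongside negative controls, exposed for 1 h to GST-tagged P. falciparum DNA-binding domains expressed in E. coli. Bound protein was picked up with Alexa488 anti-GST antibody and scanned at 488 nm.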
row,Sequence,gcPBM binding intensity (ln)
1,TTTATATCTTATTATAGGAAAATGAATATTTTCTCT [TGCATGCA_negctrl_site478],9.665 ± 0.064
2,AAGAAAATATAAATATGTACTTAATAATTTATTTAT [XGTACX_site8100],11.1 ± 0.67
3,AAAAAAGAGGGATACACACAAACATATATATATATA [CACACA_site2243],10.1 ± 0.24
4,TTATGTAAATAATTTTGTACTTAAATTATTATATAA [XGTACX_site1491],11 ± 0.74
5,CAACTTTTTGAAAATTGTACATGACATATATATATA [XGTACX_site260],11.1 ± 0.78
6,AAAAAAAATATGATGAGTACACAATAATACATGCAA [XGTACX_site6999],11.5 ± 0.88
7,TGTATAAATAAATGCGTACACACTAATAAAAAAAAA [CACACA_site858],11.6 ± 0.8
8,ATAGATAAAAAATTATTTATTTAGAATTTTTATGTA [CACACA_negctrl_site400],9.48 ± 0.16
9,GTGGTTATATATTAAGTGCATATTATAATTTTAAAC,10.3 ± 0.19
10,AATATCTAAAATGTGTGTACATAATATTTTTAATAT [XGTACX_site3831],11.7 ± 1.1
11,ATATATATATTAAATACACACATTTTTGATTAGGTT [CACACA_site3119],10 ± 0.23
12,TTTGAATCCTTATATACACACATTATGTAATATTAT [CACACA_site561],10.03 ± 0.014
13,AAAAGAGAAATGGGCACACACACACCGATTATATAT [CACACA_site4942],10.5 ± 0.25
14,AATACACCCAGACACACACACAAAAAAAAAAAAAAA [CACACA_site513],10.1 ± 0.58
15,ATTACATTTTTAATGCGTACTAAAAATGTATATAAG [XGTACX_site6384],11.3 ± 0.95
16,AATATAAAAATGTTTACACACACACCCAAATATATT [CACACA_site2511],10.21 ± 0.099
17,AGAATTACTTAAAAAAGTACATAAAATTATTTAAAA [XGTACX_site2205],11.4 ± 0.86
18,AATATGAAATATATTACACACATTTATATGTTGAAA [CACACA_site1427],9.69 ± 0.16
19,TTATTATCTCTTGTCATTATTATATACTAAGAAGTA [CACACA_negctrl_site410],9.95 ± 0.071
20,TATTAATAAATATGTTTACACACGAAAATACATTTT [CACACA_site1012],9.9 ± 0.13
21,ATATTAAGAATGTATACATGCATATATATATAGTAC [TGCATGCA_site219],10.5 ± 0.24
22,ATTTTAATAAACACTTACATGTTTTCCAAATTGTAT [CACACA_negctrl_site1807],9.89 ± 0.028
23,TTCGTTAAAAATAAATGTACATAAATAAACCTTATT [XGTACX_site621],11.2 ± 0.75

row,Sequence,gcPBM binding intensity (ln)
1,GAAAGAGAGATATATACACACATATTTATATTTTTA [CACACA_site7057],9.86 ± 0.17
2,AAAGATTTAGAAAATGAACACACGAGCACCCACCGA [CACACA_site1017],10.7 ± 0.35
3,CAGATAAGGTGAAGCTGTACAAAAATGTTTTATAAC [XGTACX_site6783],10.8 ± 0.31
4,AAAAGTCTCTTTTTAGTGCACATTTTATTTAAATAT,10.3 ± 0.24
5,TAATTAATTTATGTAACACACATTGTTGATTCAATA [CACACA_site1098],10 ± 0.16
6,TTATACTGTATAGTCGCACACAAAAATATAAAATAT [CACACA_site3869],10.4 ± 0.3
7,TCTAATTATCACATTGCACACACATTTCCTTTTACA [CACACA_site9140],10.2 ± 0.18
8,TATTTAAAAATAAAATGTACATATTATTATGCATTA [XGTACX_site1303],11.2 ± 0.7
9,TGATTCTAACTTATGGTGCAACATTATGGACACCGT,11 ± 0.72
10,TTACATATTTATGATTGTACACATTTATAAACAATA [XGTACX_site2190],11.4 ± 0.89
11,TTAATATTGTTATAGCGTACAAATAAACATATTAAA [XGTACX_site8153],11.4 ± 0.92
12,ATTATGTACTATTATACACACGTTTAATTGTAAATT [CACACA_site4278],11.2 ± 0.81
13,AATGTTAAGGAGGGGAGTACATAAAATTCTCTCTCC [XGTACX_site1990],11.5 ± 0.94
14,AAAAGCTATAAAAATCGGTAATTTATAACAGGAATT [CACACA_negctrl_site469],9.59 ± 0.4
15,TGGTAACAGCATAGAAAATGGACAAACGAAATATAA [GTGCAC_negctrl_site537],10.6 ± 0.26
16,TAAATAAACAAATTAACACACAGAATTTTTTTTTTC [CACACA_site1674],9.77 ± 0.11
17,ATAATAATAAAGTGAACACACACATATAATATATAT [CACACA_site9378],9.795 ± 0.064
18,ATTATACACGCGCGCACACACAACAAAAAAAAAAAA [CACACA_site7630],10.8 ± 0.86
19,TCCTTGCATTTTAAAACACACAAAAATTAATTGTTA [CACACA_site7152],10 ± 0.17
20,ATATTGTAAGTAAAATGTAATAAATATAATAAAATA [CACACA_negctrl_site697],9.96 ± 0.12
21,TTAGTATATACATTTGCACACATTATTTTTTAACAT [CACACA_site2618],10.16 ± 0.057
22,AAAAGGAAAATACTAGCACACAATATATAATAAACA [CACACA_site285],10
23,ATATATATTATTATATGTACATATAAATATATTAAT [XGTACX_site5270],11.2 ± 0.67

row,Sequence,gcPBM binding intensity (ln)
1,TTTCTAATTATTTCCCTTCAAATATATTAATATCGT [CACACA_negctrl_site429],9.89 ± 0.14
2,TAAAAATGTGGACACACACACATATATATATTTAAT [CACACA_site4941],11.4 ± 0.88
3,TTCATATATTATTATGCATGTTCATAAATTATCTAA [TGCATGCA_site896],9.775 ± 0.035
4,TTCATATAATTATATACATGCATAAATTCTAAGTAA [TGCATGCA_site622],9.62 ± 0.21
5,ATCAAAAGAAAACACACACACATACATATATATATA [CACACA_site3795],9.95 ± 0.22
6,ATTTGTGTATATTAGAGTACATAAAATTAGAGGAAC [XGTACX_site1654],11.6 ± 0.92
7,CATTAATGACATGATTGTACATAAGCTTTTTTACAT [XGTACX_site1888],10.7 ± 0.44
8,ACCCATTCAAATTTCGCACACACATACAAAAAAAAA [CACACA_site3094],10.4 ± 0.43
9,ATTTTATAAACAAATGAACACACAAACATATATATA [CACACA_site9036],10.1 ± 0.13
10,TACATACATAAACACACACACACATATATATATATA [CACACA_site8953],10.2 ± 0.4
11,ATTAACACTGAAAAATGTACATATATAAATATAAGC [XGTACX_site8222],11 ± 0.61
12,AATATTAAAAACAAAACACACAAAAAAAAATAAACT [CACACA_site6470],10.1 ± 0.014
13,AACGATATCTGTACTACACACATTATGTCATCCTAT [CACACA_site5374],11.8 ± 1.1
14,ATGTAAATTAAACATGGTACACATTATACAAAATTA [XGTACX_site5675],11 ± 0.47
15,AATATAGAACAATGTTGTACATATAATAATCTTATA [XGTACX_site4671],11.3 ± 0.88
16,TAAAATAATACAAAATGTACAAAATTTACAAAATGT [XGTACX_site3541],10.5 ± 0.28
17,ATTGCTTTTCTTTTTGCACACTTATGCATATATATA [CACACA_site2584],10.2 ± 0.13
18,TAATAATAAAAATAAACACACATATAGATGTATATA [CACACA_site7360],9.82 ± 0.19
19,ATTTTGTTCGAAAGGTGTACATATACAAAAATTATG [XGTACX_site957],11.7 ± 1
20,GCATGTATAATGGTAGTGCATATAATAATATAATAA [GTGCAC_site9548],10.4 ± 0.26
21,AGCACACCCACAAAAACACACACAAAGGTGTTCTTA [CACACA_site8355],10 ± 0.16
22,TCATTATTATTCCTCACACATATATATATATATATT [CACACA_site4375],10.2 ± 0.13
23,CACTTTTCATATATGACACACAAAAAATTAATAAAA [CACACA_site3639],10.5 ± 0.21

row,Sequence,gcPBM binding intensity (ln)
1,TATTATCTCTTATGAACACACATTTTTATTTTCAAA [CACACA_site3353],10.1 ± 0.11
2,ATATCGTATATGAGTGGTACTAATATGTAAAAAAAA [XGTACX_site7830],11 ± 0.63
3,AAAGTTATAATACGTACACACCTTATCTTTTTGGCT [CACACA_site6267],11.6 ± 1.1
4,TTTATGGGTATGTTTACACACATAAAAAAATATATG [CACACA_site5646],10.2 ± 0.4
5,ATATATATGAAAATATGTACATATATATATATATAA [XGTACX_site7550],11.1 ± 0.63
6,ACTGAAAAAAGAAATACACACATTCTGGATCATATA [CACACA_site3860],9.96 ± 0.085
7,TTATAAAATAATTAATGTACGTTTATGTGTATCGAA [XGTACX_site6117],11.4 ± 1
8,ATATAAGTATTTTGAATGCACTTTCTTTTTTTTTTT,9.87 ± 0.057
9,TGTGTAAACATATTCACACACATAAATTCGCATATA [CACACA_site6961],9.715 ± 0.064
10,TATATAAAAAATAAATGTACACATGTAATAATAAAA [XGTACX_site2640],11.3 ± 0.71
11,TATAAATATACACCCACACACATATATATATATATA [CACACA_site3745],10.1 ± 0.25
12,TATATATATTTATGCTGTACCAAATAAGAATAGAAA [XGTACX_site7731],10.7 ± 0.59
13,ATATGAACAAAATAAATCTCTTCAAAAATAATGTTC [GTGCAC_negctrl_site2],9.61 ± 0.19
14,TAAATGATTGCATAATGTACATATAATTTTTTTTTT [XGTACX_site1988],10.9 ± 0.45
15,AAAAAAAAAAATAAAGAAATCAAAATTGATGAATAA [GTGCAC_negctrl_site692],9.44 ± 0.25
16,AGCACAAGCACAAGCACACATTTATATATAAATACA [CACACA_site4642],10.1 ± 0.27
17,ACAAAATATACAAAATGTACAAAATTTACAAAATAT [XGTACX_site6466],10.6 ± 0.24
18,AGACAGCGCACAAACACACAAACACCCACCCACATA [CACACA_site451],10.3 ± 0.12
19,TACCCATGCATTTTTGCACACACATATATATATAAA [CACACA_site1429],10.1 ± 0.21
20,TACTTACATATAATAACACACAAGAAAAAAATAAAA [CACACA_site1033],10.1 ± 0.27
